Laboratory results: PMC12136788
Some of the results follow.

B1: 51717800_51717920_1867_CDS_ENSMUSG00000047085_ENSMUST00000058667|mouse|control|control (ssRNA)
RNA: GGGAGUUCUACAGUCCGACGAUCGAUCUCCACAGUGCGCGUGGGCCCGUGGUGCUUGUGCAGCUGGUGCUGCUUGCGCAGCUUGUAGAAGGCCACCAGCAUCACGGCGGCCAUGAAGGUGAUGGCCACGAAGCAGCCGAUGAUCAACAGAGGAUUGAGCAUCA
B2: chr1:137281999:137282000:-_ENSMUSG00000041879_ENSMUST00000161189|mus_hu|FALSE|FALSE (ssRNA)
RNA: GGGAGUUCUACAGUCCGACGAUCUUAGAUGCCGAUGGUCUGUAGAACUCGCCUCUCAUUGUCAUUAAGGUGGCCUGAAAACAUUAUGUAGCAGGGCUGCUGAGCAAACUGGCAGAGGAAAUCUGUGAGAUAUGCCUGCAGAUCCAACAGAGGAUUGAGCAUCA
B3: 19970420_19970540_2860_CDS_ENSG00000166833_ENST00000396085|human|control|control (ssRNA)
RNA: GGGAGUUCUACAGUCCGACGAUCCAGGUCCAUCUCAUCUCCUGCCUUGUCUGAGACGUCCACAUGGCAGACACUACUGCCCCGGGAGGCCAGCUGCCUUCUCAGAGGGGCGGAGUACACAUAGCGACCUGACUCAGUGUUGAUCAACAGAGGAUUGAGCAUCA
B4: 58046993_58047113_931_CDS_ENSMUSG00000051243_ENSMUST00000114144|mouse|control|control (ssRNA)
RNA: GGGAGUUCUACAGUCCGACGAUCUUCGGCGACGCAAUGUAACAUGAAAGCCAAGCCUGCGCGCAGAGGGGUGCCAGGUGCCUCAGGCGGCGGCUCUGCGCUCAGACGCACGCUGGGGGGUGCGCAGGGCAGGGCGGGCAGGCGCAACAGAGGAUUGAGCAUCA
B5: 74425765_74434846_86_CDS_ENSG00000065911_ENST00000470592|human|control|control (ssRNA)
RNA: GGGAGUUCUACAGUCCGACGAUCGUCUCACUGUUGAUUCCGAACUGCCGCGAGGUGGAAAGGGCGAAGGCGAAGGGAGCAGCUGUGCGCGGGCUGCAGCAGCCGGGCAGCCAAAGCAGACAUUAGAGAAGUCGCAGCCAUAGACAACAGAGGAUUGAGCAUCA
B6: 52478818_52478938_2217_CDS_ENSMUSG00000028312_ENSMUST00000117280|mouse|control|control (ssRNA)
RNA: GGGAGUUCUACAGUCCGACGAUCUUCAGCAACAUUUUUAAGACCUGCUAACUCCUCUUCUAGAGCGCGCAGUUCAUUCUCCUUGGUCCUCAGCUCAUCUUGAACAUCUUUGACUUCUUGAAACUUGGUUAAAAUCGAAGCUGCCAACAGAGGAUUGAGCAUCA
B7: chr1:163117276:163117277:-_ENSG00000143248_ENST00000313961|hu_hu|FALSE|FALSE (ssRNA)
RNA: GGGAGUUCUACAGUCCGACGAUCGUCAAAGCUGCUCAGGGAAGGUUCCACCAGGUUCUUCAUUGUGAUGUCCUUAGUGAAGUGGUCAAUAUUCACCUCUUUAGGAGCCUCCGUUUGAAUGAAUUCUUCAUAAAUUUGCUUUGCCAACAGAGGAUUGAGCAUCA
B8: chr11:18536319:18536320:-_ENSG00000074319_ENST00000251968|perfect_dup|FALSE|FALSE (ssRNA)
RNA: GGGAGUUCUACAGUCCGACGAUCAAGAUAUAUCUUCCCAUUUGCAUCAACAUGCUUUCCUGUUUUAAUAGUCAUUGAACUAGUAGGCUUAACAAAACAGAUAGGGGGAUUAUAUGGGUAUGUGUCCAGUAGCCAUAGGCAUAUCAACAGAGGAUUGAGCAUCA
B9: chr17:24830180:24830181:-_ENSMUSG00000040888_ENSMUST00000046839|mus_hu|FALSE|FALSE (ssRNA)
RNA: GGGAGUUCUACAGUCCGACGAUCAAUAUACUGAAGCCAGGUUCUCAGUCACUUCAGCGUUUCAUUUGGGCUUCAAACUCUGAUGAAGUGAGCCCCACGAAUCCCCUGUGGACAGGCAUGACACAACGCUGGCAGGCAUGUGCCCAACAGAGGAUUGAGCAUCA
B10: 37501169_37502713_236_3pUTR_ENSMUSG00000026915_ENSMUST00000072186|mouse|control|control (ssRNA)
RNA: GGGAGUUCUACAGUCCGACGAUCCAUAACAUGGCGAUCAUCAUUGGCAAAAGAUCUAAUAGAUCUCAUGGUUUCCUAUGGUAUUUUAGCUUCUUUUUCCGAUCCUUUUCUCUCUUUCUUGUCGUCUUCACUAGACACUGUUUUCAACAGAGGAUUGAGCAUCA
B11: chr1:39494564:39494565:+_ENSG00000168653_ENST00000372967|hu_hu|hu_hu_hu_mus_True|18_98 (ssRNA)
RNA: GGGAGUUCUACAGUCCGACGAUCAUGCAUUCGCCUCAUCGUUUUCUACCGAAGCAAGCACUCUUCGAAGUCAUCGAACUCUAUCUUGCACUCCUUUUUCGCCCGGGUCCCACCGAUUCCAUGUGCACACUCUAUCCACUCUUUCAACAGAGGAUUGAGCAUCA
B12: chr7:135832278:135832279:+_ENSMUSG00000042105_ENSMUST00000118605|mus_hu|FALSE|FALSE (ssRNA)
RNA: GGGAGUUCUACAGUCCGACGAUCAAGCUGCUCUAUUCGUUUUUGUUUUCCCGCCACUGGGGCAAGCCCUCCUUCCACACUAUGAAGACGAAAAUUGCCAGCACCACAUGAAGCCCGACCACUGCAACAAUGGUCGCAUAAAAGCAACAGAGGAUUGAGCAUCA
B13: chr20:37186997:37186998:+_ENSG00000170471_ENST00000397040|hu_hu|FALSE|FALSE (ssRNA)
RNA: GGGAGUUCUACAGUCCGACGAUCAUCAAAAAAUCCAGGUAUCGUGGAAUCAAGUGCAAUAAGGUGAGGAGGUAGACGACUAUUUGCAGGUUCCUUCAGUGCUUCUAAGGACAAAAAUCCAAAGUGUGAGAGAAAAAGGCGGGCCAACAGAGGAUUGAGCAUCA
B14: 25678777_25679749_507_CDS_ENSG00000077097_ENST00000264331|human|control|control (ssRNA)
RNA: GGGAGUUCUACAGUCCGACGAUCUUUUGCACCAUAACCAUUACGACCACCUGUAACUUUUUUCUCAUCAUCAUCAUAGUUACUGGAUGUUAAAAGCUGUCCAAAAAUUAAAGCAGGAACAUAAACUUUCUCUACCUUGUGUUCCAACAGAGGAUUGAGCAUCA
B15: chr18:52893488:52893489:-_ENSG00000196628_ENST00000354452|hu_hu|hu_hu_hu_mus_True|18_38 (ssRNA)
RNA: GGGAGUUCUACAGUCCGACGAUCUAUUUAGACCAUUUCCGCGGAGUUAUGGCAUUUACUCAGUGCUGAUAGGUGGAAAAACUACUUCAACAGGGAUUUUUUUUUUUCUUAAUACAUGCCAAGAAUUUGUGGCUGUCAAAACAGCAACAGAGGAUUGAGCAUCA
B16: chr9:72186818:72186819:+_ENSMUSG00000038535_ENSMUST00000098576|mus_hu|FALSE|FALSE (ssRNA)
RNA: GGGAGUUCUACAGUCCGACGAUCUUUUUUUAAUUCAGAAAGGUGCUCAGAAGUUGGGAUACAAACAGAAACUUUCUGCAUUACAACUUGGCAAGUAUGAGUUUUAUGUUGACUUAAGUGUGUAGCCAUAUUAUCUAAGCCAGACAACAGAGGAUUGAGCAUCA
B17: chr3:9412954:9412955:+_ENSG00000134077_ENST00000452837|hu_mus|hu_hu_hu_mus_False|48_68 (ssRNA)
RNA: GGGAGUUCUACAGUCCGACGAUCGGUUGAUAUCUCUUCUUUGAUGGCUGGAUUUUCAUAAUAGUCCAAGAUAUGAGAAUCUGAAGUAUGGCUAGUGUGCUUUUUCUUACCAUCUUUCUCAUCUGCUUUGUCUCCUUGUCCACACAACAGAGGAUUGAGCAUCA
B18: 13205954_13206074_1622_CDS_ENSG00000107186_ENST00000319217|human|control|control (ssRNA)
RNA: GGGAGUUCUACAGUCCGACGAUCUUUUGUGACGUCUUCCCUUGACAUGAGCUCGGCUUCCUGCUUCAUUCCUCUCCUCAUUAGUGUCAGGAGCACAGUUUGUCCUGUAUGUCGCAAUACCUCUACUGCUUGCUGAUUAGUAAACAACAGAGGAUUGAGCAUCA
B19: chr3:57646030:57646031:-_ENSMUSG00000027805_ENSMUST00000066882|mus_mus|FALSE|FALSE (ssRNA)
RNA: GGGAGUUCUACAGUCCGACGAUCUUAAAUCUGUACAUUAUCCACAAUGCCCAAACAAUAGAAGCAAUACUAGAAUGUCCCUAAGGUAGUGCCAUUCGAAAGGAAAUCCAUCUCACAAUAGCAACAGUUCAUUUUAACAAUAGUCAACAGAGGAUUGAGCAUCA
B20: 62054583_62054703_1311_3pUTR_ENSMUSG00000020075_ENSMUST00000045866|mouse|control|control (ssRNA)
RNA: GGGAGUUCUACAGUCCGACGAUCUAAAAUUUCUUCCACUUGAUCAGCAAAACCCAUAUCCAACAUCUGGUCGACUUCAUCCAGGACAACAUGUUUAAGUUUGGUGAGAUCUAGCUUGCCAUUCUGCAAGUGGUCUUUAAUACGCAACAGAGGAUUGAGCAUCA
B21: 37417975_37418095_810_CDS_ENSG00000185917_ENST00000332131|human|control|control (ssRNA)
RNA: GGGAGUUCUACAGUCCGACGAUCGUACACGGCUCUGGUGUUGACGGUGCACCAAGCCCACAGCAGGGCACUGUAGCUGAAGAUGCUGUCAACAGCCUCCGCAAACAGAGGCUGCAGAGAAGAGAAAAAGUCUCUGGAGGAAGCCAACAGAGGAUUGAGCAUCA
B22: chr7:141441981:141441982:+_ENSG00000106028_ENST00000265304|hu_mus|hu_hu_hu_mus_False|18_28 (ssRNA)
RNA: GGGAGUUCUACAGUCCGACGAUCCUCAUGUCUUACAAACUGACGAAAUACCUGUAACACAGGUCUUCGAAACAUGGCUUCUGUUUUUCUUACAACCUAAUCUUUAGUUAGGCUUUUCCUGACGAUCAGAAAAGAGAAAAAUGACAACAGAGGAUUGAGCAUCA

These binders were tested against T1, UNK ZnF1-3 (human, UniProt Q9C0B0 31-174) (assay: nsRBNS (natural sequence RNA bind-n-seq); RBNS binding buffer (assumed for nsRBNS): 25 mM Tris pH 7.5, 150 mM KCl, 3 mM MgCl2, 0.01% Triton X-100, 500 ug/ml BSA, 20 U/ml SUPERase-In, 4 C; UNK is unkempt and MSI1 is Musashi-1; names of the RNAs are library labels; protein concentration not given here; high values mean tight binding).
T1 sequence: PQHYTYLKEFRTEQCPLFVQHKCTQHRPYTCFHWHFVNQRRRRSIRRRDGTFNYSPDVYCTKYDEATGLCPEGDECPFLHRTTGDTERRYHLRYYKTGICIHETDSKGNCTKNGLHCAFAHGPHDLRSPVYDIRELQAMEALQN

Binder | binding signal
B1 | 0.571 enrichment R
B2 | 0.981 enrichment R
B3 | 0.705 enrichment R
B4 | 0.874 enrichment R
B5 | 1.49 enrichment R
B6 | 0.698 enrichment R
B7 | 0.967 enrichment R
B8 | 0.683 enrichment R
B9 | 0.828 enrichment R
B10 | 0.526 enrichment R
B11 | 0.627 enrichment R
B12 | 1.53 enrichment R
B13 | 1.76 enrichment R
B14 | 0.963 enrichment R
B15 | 1.13 enrichment R
B16 | 0.988 enrichment R
B17 | 0.38 enrichment R
B18 | 0.487 enrichment R
B19 | 0.827 enrichment R
B20 | 1.34 enrichment R
B21 | 1.05 enrichment R
B22 | 0.515 enrichment R
